Results: PubChem BioAssay AID485344 (National Center for Advancing Translational Sciences (NCATS), 2010)
The whole screen tested about 340,000 compounds, of which about 6,900 (2%) were called active. Rule as the data show it: active = inhibition above about 30%; inactive = below that, where a call was filed. Only a part is listed here, and it is no random draw. The source gives no active or inactive call for entries shown without one.
Also: 0% is about no effect.

Each molecule was assayed against D(2) dopamine receptor (Homo sapiens) (UniProt P14416) (assay: HTS Assay for Allosteric Antagonists of the Human D2 Dopamine Receptor: Primary Screen for Antagonists). Conditions: HEK293 TREx D2 cells, calcium flux, dopamine EC80; at 10 µM; stronger effect = higher value.
Chain of UniProt P14416 (P14416 whole entry, looked up): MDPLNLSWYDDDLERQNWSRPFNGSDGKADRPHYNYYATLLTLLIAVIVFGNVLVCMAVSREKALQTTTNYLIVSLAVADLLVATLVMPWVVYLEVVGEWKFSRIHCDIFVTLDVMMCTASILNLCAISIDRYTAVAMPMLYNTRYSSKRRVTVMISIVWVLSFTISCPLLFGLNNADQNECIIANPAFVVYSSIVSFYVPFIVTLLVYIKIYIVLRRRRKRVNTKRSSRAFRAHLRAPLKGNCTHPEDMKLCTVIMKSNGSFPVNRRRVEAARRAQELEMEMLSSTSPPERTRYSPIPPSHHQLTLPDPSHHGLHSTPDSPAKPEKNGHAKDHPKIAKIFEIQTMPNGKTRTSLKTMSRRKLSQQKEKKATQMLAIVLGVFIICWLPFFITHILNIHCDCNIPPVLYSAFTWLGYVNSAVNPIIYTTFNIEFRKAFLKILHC
Procedure, shortened: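 Dopamine at EC80 is the agonist stimulus; test compounds precede it by 180 s. Calcium flux read kinetically in a force-coupled, inducible HEK293 T-REx D2 cell line.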
Molecule Cc1ccc2oc(C(=O)NCC(c3ccc(Cl)cc3)N3CCOCC3)c(C)c2c1 (stereo not drawn) has an inhibition of -11.4%. In the case of O=C(CSc1nnc(COc2ccc(F)cc2)o1)N1CCCCC1, the inhibition is reported as active: 97.1%. For Cc1ccc(CNC(=O)c2cc3c(=O)n4cccc(C)c4nc3s2)cc1, the inhibition was -4.32%. Molecule COc1ccc(C2(N3CCN(c4cc(C)ccc4C)CC3)C(=O)c3ccccc3C2=O)cc1 has an inhibition of 7.52%. In the case of COc1cccc(CNC(=O)CCC2CCCN(C(=O)c3cc(C4CC4)[nH]n3)C2)c1 (stereo not drawn), the inhibition is reported as active: 63%. N#Cc1cccc(NC(=O)C2CCN(S(=O)(=O)c3ccc4c(c3)CCCN4C(=O)C3CCC3)CC2)c1 was tested, and the inhibition was -26.2%. CCOc1ccccc1NC(=O)CSc1nc2cc(OC)c(OC)cc2c2nc(CCn3c(C)nc4ccccc43)nn12 was tested, and the inhibition was 5.95%. With CC(C)Sc1nnc(-c2ccc(S(=O)(=O)N3CCOCC3)cc2)n1C the inhibition was active: 34.9%. Cc1ccc(-c2nc(CCNC(=O)C(=O)Nc3ccc(C)c(Cl)c3)cs2)cc1 gave an inhibition of -7.74%. Molecule COc1ccccc1C(=O)Nc1ccccc1C(=O)OCc1cc(=O)n2ccsc2n1 has an inhibition of -4.69%. CCOC(=O)c1sc(NC(=O)c2nc3nc(C)cc(C(F)F)n3n2)c(C(=O)OC(C)C)c1C showed an inhibition of 13.1%. Molecule CCCOc1ccc(CNC(=O)CCCN2C(=O)CSc3c2c(C)nn3-c2ccccc2)cc1 has an inhibition of 1.44%. In the case of CCOc1ccc(Nc2cc(C)nc3nncn23)cc1, the inhibition is reported as -8.69%. With Cc1ccccc1NC(=O)Cn1cc(S(=O)(=O)c2ccccc2)c(=O)c2ccccc21 the inhibition was -5.35%. COc1ccc(NC(=O)c2cc3c(-c4ccccc4F)nn(C)c3s2)c(OC)c1 was tested, and the inhibition was -1.1%. Molecule CCC(C)NC(=O)c1cc(Sc2cccc(Cl)c2)nc2ccccc12 (stereo not drawn) has an inhibition of -23.1%. FC(F)(F)c1cccc(N2CCN(c3ncnc4c3nc3n4CCCC3)CC2)c1 was tested, and the inhibition was -5.55%. With CCN1CCN(Cc2c(O)ccc3oc(C)c(C(=O)Nc4cccc(Cl)c4C)c23)CC1 the inhibition was -9.98%. CCCn1c2ccccc2c2cnn(CC(=O)NCCCN3CCCCC3CC)c(=O)c21 (stereo not drawn) was tested, and the inhibition was -14%. In the case of O=C(Cn1nc(C(F)(F)F)c2c1CCCC2)Nc1cccc(Cl)c1, the inhibition is reported as 10.8%. CCCN(C(=O)c1cc(S(=O)(=O)N2CCc3ccccc32)cn1C)c1ccc(OCC)cc1 gave an inhibition of 12.2%. In the case of Cc1ccc(Cl)cc1N1CCN(c2ncnc3c2nc2n3CCCC2)CC1, the inhibition is reported as -4.31%. CCOc1ccc(C2C(C(=O)Nc3ccccc3)=C(C)Nc3nc(-c4ccccc4Cl)nn32)cc1OC (stereo not drawn) was tested, and the inhibition was -1.82%. COc1ccc(CNC(=O)Cn2c(=O)oc3cc(S(=O)(=O)NCc4ccccc4)ccc32)cc1 showed an inhibition of 20.9%. With CCOc1ccc(-c2cc(NC(=O)c3ccccc3)c(C(=O)OC)s2)cc1 the inhibition was -8.72%. O=c1[nH]c(C2CCN(S(=O)(=O)c3ccccc3)CC2)nc2c1nnn2Cc1cccc(Cl)c1 was tested, and the inhibition was active: 31.7%. With COc1ccccc1CCNC(=O)c1cccn1-c1nnc(N2CCCC2)s1 the inhibition was 5.55%. Cc1cc(C)c(NC(=O)Cn2c(=O)oc3cc(S(=O)(=O)N4CCCCCC4)ccc32)c(C)c1 was tested, and the inhibition was 16%. With Cc1ccc(Cc2nc3ccccc3nc2SCC(=O)N2CCC(C)CC2)cc1 the inhibition was -10.3%. Cc1ccc(NC(=O)Cn2c(=O)n(-c3ccc(C)cc3)c(=O)c3c2cnn3C)cc1 showed an inhibition of 2.36%. For Cc1ccc(-n2nc(C)c3c(C)c(CCC(=O)NC(C)c4ccccc4)c(C)nc32)cc1 (stereo not drawn), the inhibition was -10%. In the case of Fc1ccc(CN2CCc3nc(N4CCN(c5ccccc5F)CC4)ncc3C2)c(F)c1, the inhibition is reported as 7.7%. Molecule CCOc1ccc(NC(=O)c2c(C)oc3nc(C)nc(N4CCCC4)c23)cc1 has an inhibition of -3.76%. For COc1cccc(C(=O)Nc2ccc3nc(SCC(=O)N(C)c4ccccc4)sc3c2)c1, the inhibition was -16.1%. Work on Cc1ccc(CNC(=O)c2ccc(CSc3nc4ccncc4n3Cc3ccc(C)cc3)cc2)cc1 yielded an inhibition of 11.6%. With COc1ccc(CCNC(=O)CCc2cn(Cc3ccccc3Cl)c3ccccc23)c(OC)c1 the inhibition was 11.9%. With O=C(NCCc1ccc(Cl)cc1)C1CCN(Cc2cc3ccccc3n2Cc2ccccc2)CC1 the inhibition was -1.55%. Molecule CCC1Sc2ccccc2N(CC(=O)NCc2ccc(C)cc2)C1=O (stereo not drawn) has an inhibition of -3.04%. O=S(=O)(c1ccc(Cl)cc1)c1nnn2c1nc(NC1CCCC1)c1sccc12 showed an inhibition of -4.34%. COc1ccc(N2CCN(C(CNS(=O)(=O)c3ccc(OC)c(C)c3)c3ccco3)CC2)cc1 (stereo not drawn) gave an inhibition of -6.69%. Molecule Cc1cccn2c(=O)c3cc(C(=O)NCC(C)C)sc3nc12 has an inhibition of -22%. For Cc1noc2ncnc(N3CCN(c4cccc(C(F)(F)F)c4)CC3)c12, the inhibition was -4.14%. Molecule COc1ccc(C)cc1-n1c(-c2ccc(Cl)cc2)cc2c1CC(C)(C)CC2=O has an inhibition of -9.62%. With O=C(CCN1CCCCC1)Nc1cccc(Cl)c1 the inhibition was active: 56.8%. Nc1c(C(=O)Nc2ccccc2Br)sc2nc(-c3cccs3)ccc12 showed an inhibition of -2.38%. O=C(CSc1nc2c([nH]c3ccccc32)c(=O)n1-c1ccccc1)Nc1ccc2c(c1)OCO2 gave an inhibition of 3.86%. With Cc1cc(NC(=O)N2CCC(CN3CCCCCC3)CC2)ccc1Br the inhibition was 0.921%. In the case of COc1cccc(NC(=O)c2c(C)nn(-c3cccc(C)c3)c2-n2cccc2)c1, the inhibition is reported as 6.58%.
